One data set relates to H4. In words: cell viability relative to siNT1 (ATP content); H4 human neuroglioma and GL261 mouse glioma; higher = less toxic. Particulars: siRNA concentration 10 nM; 96 h; human.
Another data set relates to GL261. The data set is described as above. Particulars: siRNA concentration 25 nM; 96 h; mouse.

Among the data in the supplement of paper PMC8948288 are cell viability values, retold here.

Shown are siRNA guide strands that differ only in the seed, positions 2 to 7.
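Note: cells reverse transfected with siRNA duplexes via lipid reagent, ATP read by luminescence, triplicate wells, values scaled to mean viability with non-targeting control siNT1.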

For the sequence UCCGUCAACAUGUAAACCA, the figures for the cell viability in the data set on H4 and in the data set on GL261 were 81.6% and 31.1%, respectively.
For UCCGUCCACAUGUAAACCA the same measures were 28.7% and 14%.
For UCCGUCGACAUGUAAACCA the same measures were 65.1% and 42.7%.
For UCCGUCUACAUGUAAACCA the same measures were 46.5% and 25.6%.
With UCCGUGAACAUGUAAACCA, the cell viability was 82.5% with H4 and 31.4% in the data set on GL261.
For UCCGUGCACAUGUAAACCA the same measures were 10.5% and 14.8%.
For UCCGUGGACAUGUAAACCA the same measures were 55.1% and 25.4%.
For UCCGUGUACAUGUAAACCA the same measures were 61.4% and 27.1%.
As to UCCGUUAACAUGUAAACCA, the cell viability in the data set on H4 stood at 102%; with GL261, 81.2%.
As for UCCGUUCACAUGUAAACCA, the cell viability with H4 was determined as 29.2%; in the data set with GL261 it was 24.5%.
For UCCGUUGACAUGUAAACCA the same measures were 78.7% and 48.3%.
The like results for UCCGUUUACAUGUAAACCA were, in that order, 81.8% and 38%.
For UCCUAAAACAUGUAAACCA the same measures were 106% and 46.4%.
Consider UCCUAACACAUGUAAACCA, for which the cell viability with H4 was determined as 65.6%; with GL261 it was 26%.
As for UCCUAAGACAUGUAAACCA, the cell viability with H4 stood at 82.9%; in the data set on GL261, 75.7%.
Regarding UCCUAAUACAUGUAAACCA, the figures for the cell viability with H4 and with GL261 were 91.1% and 66.3%, respectively.
As to UCCUACAACAUGUAAACCA, the cell viability in the data set on H4 worked out at 86.8%; with GL261, 45%.
For UCCUACCACAUGUAAACCA the same measures were 49.5% and 19.8%.
For UCCUACGACAUGUAAACCA the same measures were 76% and 47.1%.
For UCCUACUACAUGUAAACCA the same measures were 63.4% and 35.5%.
For UCCUAGAACAUGUAAACCA, the results for the cell viability in the data set on H4 and in the data set on GL261 were 73.3% and 45.5%, respectively.
As to UCCUAGCACAUGUAAACCA, the results for the cell viability in the data set with H4 and with GL261 were 17.8% and 10%, respectively.
UCCUAGGACAUGUAAACCA: the values for the cell viability with H4 and in the data set on GL261 were 56.1% and 45.7%, respectively.
For UCCUAGUACAUGUAAACCA the same measures were 72.2% and 29.3%.
On to UCCUAUAACAUGUAAACCA, for which the cell viability in the data set on H4 came out at 106%; in the data set with GL261, 51.3%.
For UCCUAUCACAUGUAAACCA the same measures were 62.3% and 14.1%.
The like results for UCCUAUGACAUGUAAACCA were, in that order, 82% and 50.2%.
For UCCUAUUACAUGUAAACCA the same measures were 89.8% and 37.6%.
For the sequence UCCUCAAACAUGUAAACCA, the cell viability in the data set with H4 came to 79.4%; with GL261, 26.5%.
The like results for UCCUCACACAUGUAAACCA were, in that order, 68.2% and 20.5%.
As to UCCUCAGACAUGUAAACCA, the cell viability was found to be 70.1% in the data set with H4 and 23% in the data set with GL261.
The like results for UCCUCAUACAUGUAAACCA were, in that order, 86.4% and 25.3%.
For UCCUCCAACAUGUAAACCA the same measures were 72.3% and 21.4%.
The like results for UCCUCCCACAUGUAAACCA were, in that order, 58.7% and 12.8%.
On to UCCUCCGACAUGUAAACCA, for which the cell viability with H4 came out at 74.6%; in the data set on GL261, 30.8%.
For UCCUCCUACAUGUAAACCA the same measures were 52.1% and 19.4%.
In the case of UCCUCGAACAUGUAAACCA, the figures for the cell viability with H4 and with GL261 were 75% and 38.1%, respectively.
UCCUCGCACAUGUAAACCA: the cell viability in the data set with H4 worked out at 63.5%; with GL261 it was 20.3%.
For UCCUCGGACAUGUAAACCA the same measures were 78.3% and 19.8%.
For the sequence UCCUCGUACAUGUAAACCA, the cell viability in the data set on H4 was found to be 95.4%; with GL261, 25.9%.
The like results for UCCUCUAACAUGUAAACCA were, in that order, 112% and 59.5%.
The like results for UCCUCUCACAUGUAAACCA were, in that order, 84.9% and 19.2%.
For UCCUCUGACAUGUAAACCA the same measures were 71.4% and 46.4%.
As to UCCUCUUACAUGUAAACCA, the cell viability with H4 was found to be 77.9%; in the data set with GL261, 35.5%.
The like results for UCCUGAAACAUGUAAACCA were, in that order, 86.8% and 35.5%.
The like results for UCCUGACACAUGUAAACCA were, in that order, 30.2% and 19.4%.
As for UCCUGAGACAUGUAAACCA, the cell viability turned out to be 111% in the data set with H4 and 52.7% in the data set on GL261.
For the sequence UCCUGAUACAUGUAAACCA, the values for the cell viability with H4 and with GL261 were 91.3% and 38.1%, respectively.
On to UCCUGCAACAUGUAAACCA, for which the cell viability with H4 was found to be 98%; with GL261, 40.1%.
For UCCUGCCACAUGUAAACCA the same measures were 29.2% and 7.42%.
In the case of UCCUGCGACAUGUAAACCA, the cell viability stood at 103% in the data set with H4 and 40.7% with GL261.
Consider UCCUGCUACAUGUAAACCA, for which the cell viability in the data set with H4 is 41.7%; in the data set with GL261, 7.87%.
For UCCUGGAACAUGUAAACCA the same measures were 66.2% and 21.4%.
Take UCCUGGCACAUGUAAACCA: the cell viability with H4 worked out at 7.81%; with GL261 it was 7.55%.
For UCCUGGGACAUGUAAACCA the same measures were 10.2% and 12.6%.
For UCCUGGUACAUGUAAACCA the same measures were 14.1% and 30.6%.
The like results for UCCUGUAACAUGUAAACCA were, in that order, 84.7% and 37%.
Consider UCCUGUCACAUGUAAACCA, for which the cell viability with H4 worked out at 30.1%; with GL261, 9%.
With UCCUGUGACAUGUAAACCA, the cell viability with H4 was 59.2%; in the data set on GL261, 33.2%.
The like results for UCCUGUUACAUGUAAACCA were, in that order, 70.9% and 16.2%.
The like results for UCCUUAAACAUGUAAACCA were, in that order, 87.1% and 55%.
For UCCUUACACAUGUAAACCA the same measures were 82.2% and 44.1%.
As to UCCUUAGACAUGUAAACCA, the cell viability in the data set with H4 amounted to 71.7%; with GL261 it was 64%.
The like results for UCCUUAUACAUGUAAACCA were, in that order, 69.5% and 60.2%.
For UCCUUCAACAUGUAAACCA the same measures were 75.6% and 37.2%.
